# Assay results published in publication PMC4336329 (PLoS ONE, 2015).
# Out of some 310,000 compounds screened, about 14,000 (4.5%) showed an effect of 50% or more. Effects have a minus sign here. This is one part of the list.
# Target: human ether-à-go-go-related gene (hERG) potassium channel (human, UniProt Q12809)
# Assay: primary screen, population patch clamp on CHO cells stably expressing hERG
# 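Further: peak tail current of the secondary pulse compared with the same well before compound.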
# Sequence of human ether-à-go-go-related gene (hERG) potassium channel (Q12809 whole entry, looked up): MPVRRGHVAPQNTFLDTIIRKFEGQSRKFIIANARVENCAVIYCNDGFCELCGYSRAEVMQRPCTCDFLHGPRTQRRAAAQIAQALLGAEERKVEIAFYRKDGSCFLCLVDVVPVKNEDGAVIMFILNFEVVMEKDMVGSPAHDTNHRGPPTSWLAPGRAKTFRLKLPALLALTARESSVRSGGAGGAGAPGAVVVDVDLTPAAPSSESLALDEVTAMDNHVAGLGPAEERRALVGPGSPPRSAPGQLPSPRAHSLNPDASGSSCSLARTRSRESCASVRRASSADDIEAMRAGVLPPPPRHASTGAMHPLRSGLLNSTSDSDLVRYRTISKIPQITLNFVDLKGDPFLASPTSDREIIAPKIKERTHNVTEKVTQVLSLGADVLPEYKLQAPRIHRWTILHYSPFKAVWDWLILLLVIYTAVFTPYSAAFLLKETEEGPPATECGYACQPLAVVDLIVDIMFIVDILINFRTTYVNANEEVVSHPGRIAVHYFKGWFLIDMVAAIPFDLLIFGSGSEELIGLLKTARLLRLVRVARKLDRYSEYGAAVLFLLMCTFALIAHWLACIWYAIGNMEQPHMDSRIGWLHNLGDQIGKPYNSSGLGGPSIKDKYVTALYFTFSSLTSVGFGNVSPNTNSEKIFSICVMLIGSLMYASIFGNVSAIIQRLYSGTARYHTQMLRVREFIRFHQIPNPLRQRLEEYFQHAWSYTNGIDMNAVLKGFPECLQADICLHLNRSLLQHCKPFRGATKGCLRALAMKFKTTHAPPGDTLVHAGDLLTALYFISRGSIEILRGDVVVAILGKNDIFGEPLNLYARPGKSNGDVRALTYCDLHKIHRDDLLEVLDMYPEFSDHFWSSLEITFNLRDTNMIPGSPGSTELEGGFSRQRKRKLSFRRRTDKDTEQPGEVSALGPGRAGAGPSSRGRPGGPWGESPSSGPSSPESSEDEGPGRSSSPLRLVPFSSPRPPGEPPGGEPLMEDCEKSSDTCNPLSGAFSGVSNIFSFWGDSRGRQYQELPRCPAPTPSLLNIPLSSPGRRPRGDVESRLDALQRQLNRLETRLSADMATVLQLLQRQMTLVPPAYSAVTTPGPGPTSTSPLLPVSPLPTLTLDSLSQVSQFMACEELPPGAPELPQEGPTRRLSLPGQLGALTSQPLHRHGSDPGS
row,SMILES,"hERG current change (%, negative = inhibition) at 10uM"
1,CN(C)c1ccc(/C=N/NC(=O)c2ccc(Cn3cc(Br)cn3)o2)cc1,-46.1%
2,CCOC(=O)C1=NN(c2cccc(C)c2)C2(S1)SC(C(C)=O)=C(C)N2c1ccccc1 (stereo not shown),8.94%
3,CCOC(=O)c1ccc(N=C(c2ccccc2)c2c(O)n(C)c(=O)n(C)c2=O)cc1,7.79%
4,COC(=O)CN1C(=S)N(c2ccc(Cl)cc2)C(=O)C1CC(=O)Nc1ccc(Cl)cc1 (stereo not shown),5.84%
5,O=C(CCNS(=O)(=O)c1ccc(Cl)cc1)NCc1cccs1,6.1%
6,COc1ccc(C)cc1Nc1n[n+](-c2ccccc2)c(-c2ccc(SC)cc2)s1.[Cl-],-1.4%
7,O=C(CCCc1ccccc1)NC12CC3CC(CC(C3)C1)C2,-1.26%
8,CC1CCN(C(=O)c2[nH]cnc2C(=O)N2CCN(c3ccccc3)CC2)CC1,14.2%
9,CCCCn1nnnc1NCc1cc(OC)c(OC)cc1OC,0.567%
10,CCCCN1C(=O)C2C(C(=O)Nc3cccc(OC)c3)C3C=CC2(O3)C1C(=O)NC1CCCCC1C (stereo not shown),0.947%
11,Cc1ccccc1C(=O)N1CCN(c2ncccn2)CC1,16.8%
12,CC(C)(C)OC(=O)N1CCC(C(=O)N[C@@H](Cc2c[nH]c3ccccc23)C(=O)O)CC1,24%
13,Cl.OC(COCc1ccccc1)CN1CCc2ccccc2C1 (stereo not shown),-25.7%
14,CC(C)Sc1nnc([C@@H](N)Cc2c[nH]c3ccccc23)o1.Cl,5.51%
15,c1ccc2c(c1)CNc1ccccc1C2,0.828%
16,COc1ccc(CCNC(=O)C(=O)NCCC2CCCCN2S(=O)(=O)c2cccs2)cc1 (stereo not shown),-19.1%
17,CCOc1cc(C(=O)N2CCc3cc(OC)c(OC)cc3C2)ccc1OC(F)F,-35.7%
18,CCSC(SCC)[C@H](O)[C@@H](O)[C@H](O)[C@H](O)CO,-6.03%
19,C=CCn1c(COc2ccc(F)cc2)nnc1SCC(=O)NC1CCCC1,-27.5%
20,CCCC(=O)Nc1ccc(NC(=O)c2ccccn2)cn1,-8.57%
21,C/C(Cc1ccccc1)=N\NC(=O)CNC(=O)c1ccc(Cl)cc1,-13.5%
22,COc1ccc(S(=O)(=O)NCC2CCCN(C(=O)CN3CCCCC3)C2)cc1 (stereo not shown),13.3%

row,SMILES,"hERG current change (%, negative = inhibition) at 10uM"
1,Cc1nc(-c2ccccn2)sc1C(=O)O,16.7%
2,CC(=O)c1ccc(NC(=O)/C(Cl)=C/c2ccccc2)cc1,18.5%
3,CCOC(=O)c1c(NC(=O)C2C3C=CC(CC3)C2C(=O)O)sc(C)c1CC (stereo not shown),-2.01%
4,Cc1ccc(CN(c2ccc(C(=O)NCC3CCCO3)cc2)S(C)(=O)=O)cc1 (stereo not shown),1.91%
5,Cc1ccc(NC2=NC(C(=O)Nc3ccc(C)c(C)c3)CC(=O)N2)cc1 (stereo not shown),-8.08%
6,CN1CCN(C(=O)c2cccn(Cc3cccc(Cl)c3)c2=O)CC1,23%
7,CC(=O)Nc1ccc(C(=O)N/N=C/c2cc(Br)cc(Br)c2O)cc1,12.4%
8,COc1ccc(-c2nc(/C=C3\C(C)=Nc4ccccc43)c(O)o2)cc1,6.27%
9,CN1CCc2nc3sc(C(=O)C45CC6CC(CC(C6)C4)C5)c(N)c3cc2C1,-12.7%
10,O=C(Nc1ccsc1C(=O)O)c1ccc(Cl)cc1,27.9%
11,COc1cc(CC(=O)OCC(=O)N2CCCCC2C)cc(OC)c1OC (stereo not shown),6.28%
12,CN(Cc1ccccc1)C(=O)COC(=O)c1ccccc1Nc1ccccc1,13%
13,CN(C)c1[nH]c(=O)c(C#N)c2c1CCN2Cc1ccccc1,1.46%
14,CCN1C(=O)NC(=O)/C(=C\c2cn(CC(=O)N3CCCCC3C)c3ccccc23)C1=O (stereo not shown),4.42%
15,COc1cccc(-c2noc(-c3cccnc3)n2)c1,3.69%
16,COc1ccccc1-c1ccc(=O)n(CC(=O)Nc2ccc(C(=O)N3CCCC3)cc2)n1,-27.6%
17,C[C@H](NC(=O)c1nc[nH]c1C(=O)NCCCCC[NH3+])C(=O)OC(C)(C)C.[Cl-],12.8%
18,CCOc1ccc(N2C(=O)CC(NCc3ccc(F)cc3)C2=O)cc1 (stereo not shown),-19.4%
19,CC1(C)Cc2c(sc(NC(=O)COc3ccc(Cl)cc3)c2C#N)C(C)(C)N1,-9.35%
20,CCOc1ccc(S(=O)(=O)N2CCN(CC)CC2)cc1NC(=O)c1ccccc1F,-16.6%
21,Cc1cc(C)c(OCCNC(=O)c2ccccc2Sc2ccccc2C#N)c(C)c1,6.79%
